Assay results as given in the supplement of paper PMC12217912.
The other results are listed elsewhere or left out. Sequences were assembled here from the parent chain. Values near 0.05 are background.

B1: TEV protease; numbered along this chain (parent)
chain: MGESLFKGPRDYNPISSSICHLTNESDGHTTSLYGIGFGPFIITNKHLFRRNNGTLVVQSLHGVFKVKDTTTLQQHLVDGRDMIIIRMPKDFPPFPQKLKFREPQREERICLVTTNFQTKSMSSMVSDTSCTFPSGDGIFWKHWIQTKDGQCGSPLVSTRDGFIVGIHSASNFTNTNNYFTSVPKNFMELLTNQEAQQWVSGWRLNADSVLWGGHKVFMVKPEEPFQPVKEATQL

Variants of: B1
Test: raw area under fraction-flipped curve 0-4 h after induction (AUC4h, not background-subtracted), DNA-recorder readout of cleavage of the substrate (dimensionless); higher = more cleavage of the substrate by the protease variant
Settings: temperature: 34 °C; time window: 0-4 h after rhamnose induction
Protocol: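 In vivo DNA recorder in E. coli TOP10(DE3) ΔrhaA at 34 °C. Each TEVp single-site mutant (parent TEVp 0) is paired with a single-site variant of the 7-mer TEVs (canonical ENLYFQ|S). The substrate sits between flexible linkers in a Bxb1-sfGFP-TEVs-SsrA fusion, so cleavage stabilises Bxb1 and speeds flipping of a recombination array, read by NGS. The value is the raw area under the fraction-flipped curve over 0-4 h after rhamnose induction (AUC4h), with ≥20 reads per time point. It is not background-subtracted; inactive controls average about 0.047.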
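Further: Bxb1 expression induced with 0.2% (w/v) L-rhamnose at OD600 near 0.5, cultures sampled hourly, flipped fraction per protease–substrate barcode pair counted by paired-end Illumina sequencing.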

Variant	area with substrate DNLYFQS	area with substrate FNLYFQS	area with substrate HNLYFQS	area with substrate LNLYFQS	area with substrate MNLYFQS	area with substrate NNLYFQS	area with substrate SNLYFQS	area with substrate WNLYFQS	area with substrate YNLYFQS	area with substrate GNLYFQS
MGESLFKGPRDYNPISSSICHLTNESDGHTTSLYGIGFGPFIITNKHLFRRNNGTLVVQSLHGVFKVKDTTTLQQHLVDGRDMIIIRMPKDFPPFPQKLKFREPQREERICLVTTNFQTKSMSSMVSDTSCTFPSGDGIFWKHWIQTKDGQCGSPLVSTRDGFIHGIHSASNFTNTNNYFTSVPKNFMELLTNQEAQQWVSGWRLNADSVLWGGHKVFMVKPEEPFQPVKEATQL [V165H]	0.0588	0.0475	0.0438	0.0394	0.0355	0.003	0.0336	0.0467	0.0343	
MGESLFKGPRDYNPISSSICHLTNESDGHTTSLYGIGFGPFIITNKHLFRRNNGTLVVQSLHGVFKVKDTTTLQQHLVDGRDMIIIRMPKDFPPFPQKLKFREPQREERICLVTTNFQTKSMSSMVSDTSCTFPSGDGIFWKHWIQTKDGQCGSPLVSTRDGFIKGIHSASNFTNTNNYFTSVPKNFMELLTNQEAQQWVSGWRLNADSVLWGGHKVFMVKPEEPFQPVKEATQL [V165K]	0.0626		0.0529	0.0617	0.0456		0.0527	0.0503		0.0431
MGESLFKGPRDYNPISSSICHLTNESDGHTTSLYGIGFGPFIITNKHLFRRNNGTLVVQSLHGVFKVKDTTTLQQHLVDGRDMIIIRMPKDFPPFPQKLKFREPQREERICLVTTNFQTKSMSSMVSDTSCTFPSGDGIFWKHWIQTKDGQCGSPLVSTRDGFIVHIHSASNFTNTNNYFTSVPKNFMELLTNQEAQQWVSGWRLNADSVLWGGHKVFMVKPEEPFQPVKEATQL [G166H]	0.0684		0.0589	0.0503	0.0519	0.0387		0.0523	0.0561	
MGESLFKGPRDYNPISSSICHLTNESDGHTTSLYGIGFGPFIITNKHLFRRNNGTLVVQSLHGVFKVKDTTTLQQHLVDGRDMIIIRMPKDFPPFPQKLKFREPQREERICLVTTNFQTKSMSSMVSDTSCTFPSGDGIFWKHWIQTKDGQCGSPLVSTRDGFIVYIHSASNFTNTNNYFTSVPKNFMELLTNQEAQQWVSGWRLNADSVLWGGHKVFMVKPEEPFQPVKEATQL [G166Y]	0.0551	0.0593	0.0533			0.0712		0.0569		
MGESLFKGPRDYNPISSSICHLTNESDGHTTSLYGIGFGPFIITNKHLFRRNNGTLVVQSLHGVFKVKDTTTLQQHLVDGRDMIIIRMPKDFPPFPQKLKFREPQREERICLVTTNFQTKSMSSMVSDTSCTFPSGDGIFWKHWIQTKDGQCGSPLVSTRDGFIVGLHSASNFTNTNNYFTSVPKNFMELLTNQEAQQWVSGWRLNADSVLWGGHKVFMVKPEEPFQPVKEATQL [I167L]	0.0603		0.053	0.0579	0.0619			0.0485	0.0624	
MGESLFKGPRDYNPISSSICHLTNESDGHTTSLYGIGFGPFIITNKHLFRRNNGTLVVQSLHGVFKVKDTTTLQQHLVDGRDMIIIRMPKDFPPFPQKLKFREPQREERICLVTTNFQTKSMSSMVSDTSCTFPSGDGIFWKHWIQTKDGQCGSPLVSTRDGFIVGQHSASNFTNTNNYFTSVPKNFMELLTNQEAQQWVSGWRLNADSVLWGGHKVFMVKPEEPFQPVKEATQL [I167Q]	0.0568		0.0517	0.0558	0.0674		0.0569	0.0572	0.0601	
MGESLFKGPRDYNPISSSICHLTNESDGHTTSLYGIGFGPFIITNKHLFRRNNGTLVVQSLHGVFKVKDTTTLQQHLVDGRDMIIIRMPKDFPPFPQKLKFREPQREERICLVTTNFQTKSMSSMVSDTSCTFPSGDGIFWKHWIQTKDGQCGSPLVSTRDGFIVGIHLASNFTNTNNYFTSVPKNFMELLTNQEAQQWVSGWRLNADSVLWGGHKVFMVKPEEPFQPVKEATQL [S169L]	0.0606		0.0523	0.0674	0.0599		0.0675		0.0652	
MGESLFKGPRDYNPISSSICHLTNESDGHTTSLYGIGFGPFIITNKHLFRRNNGTLVVQSLHGVFKVKDTTTLQQHLVDGRDMIIIRMPKDFPPFPQKLKFREPQREERICLVTTNFQTKSMSSMVSDTSCTFPSGDGIFWKHWIQTKDGQCGSPLVSTRDGFIVGIHVASNFTNTNNYFTSVPKNFMELLTNQEAQQWVSGWRLNADSVLWGGHKVFMVKPEEPFQPVKEATQL [S169V]	0.0541		0.0615	0.0665	0.061	0.0613	0.0649		0.0616	
MGESLFKGPRDYNPISSSICHLTNESDGHTTSLYGIGFGPFIITNKHLFRRNNGTLVVQSLHGVFKVKDTTTLQQHLVDGRDMIIIRMPKDFPPFPQKLKFREPQREERICLVTTNFQTKSMSSMVSDTSCTFPSGDGIFWKHWIQTKDGQCGSPLVSTRDGFIVGIHSDSNFTNTNNYFTSVPKNFMELLTNQEAQQWVSGWRLNADSVLWGGHKVFMVKPEEPFQPVKEATQL [A170D]	0.0565			0.0403			0.0468			

Same assay, conditions: temperature: 34 °C; time window: 0-4 h after rhamnose induction

Variant	area with substrate INLYFQS	area with substrate PNLYFQS	area with substrate TNLYFQS	area with substrate VNLYFQS	area with substrate KNLYFQS	area with substrate RNLYFQS	area with substrate QNLYFQS
MGESLFKGPRDYNPISSSICHLTNESDGHTTSLYGIGFGPFIITNKHLFRRNNGTLVVQSLHGVFKVKDTTTLQQHLVDGRDMIIIRMPKDFPPFPQKLKFREPQREERICLVTTNFQTKSMSSMVSDTSCTFPSGDGIFWKHWIQTKDGQCGSPLVSTRDGFIKGIHSASNFTNTNNYFTSVPKNFMELLTNQEAQQWVSGWRLNADSVLWGGHKVFMVKPEEPFQPVKEATQL [V165K]	0.0526	0.0519	0.0699	0.0547			
MGESLFKGPRDYNPISSSICHLTNESDGHTTSLYGIGFGPFIITNKHLFRRNNGTLVVQSLHGVFKVKDTTTLQQHLVDGRDMIIIRMPKDFPPFPQKLKFREPQREERICLVTTNFQTKSMSSMVSDTSCTFPSGDGIFWKHWIQTKDGQCGSPLVSTRDGFIVHIHSASNFTNTNNYFTSVPKNFMELLTNQEAQQWVSGWRLNADSVLWGGHKVFMVKPEEPFQPVKEATQL [G166H]	0.0467	0.036		0.0474	0.0674	0.0486	
MGESLFKGPRDYNPISSSICHLTNESDGHTTSLYGIGFGPFIITNKHLFRRNNGTLVVQSLHGVFKVKDTTTLQQHLVDGRDMIIIRMPKDFPPFPQKLKFREPQREERICLVTTNFQTKSMSSMVSDTSCTFPSGDGIFWKHWIQTKDGQCGSPLVSTRDGFIVYIHSASNFTNTNNYFTSVPKNFMELLTNQEAQQWVSGWRLNADSVLWGGHKVFMVKPEEPFQPVKEATQL [G166Y]	0.0439		0.0432				
MGESLFKGPRDYNPISSSICHLTNESDGHTTSLYGIGFGPFIITNKHLFRRNNGTLVVQSLHGVFKVKDTTTLQQHLVDGRDMIIIRMPKDFPPFPQKLKFREPQREERICLVTTNFQTKSMSSMVSDTSCTFPSGDGIFWKHWIQTKDGQCGSPLVSTRDGFIVGLHSASNFTNTNNYFTSVPKNFMELLTNQEAQQWVSGWRLNADSVLWGGHKVFMVKPEEPFQPVKEATQL [I167L]		0.0616	0.0667	0.0591			0.0536
MGESLFKGPRDYNPISSSICHLTNESDGHTTSLYGIGFGPFIITNKHLFRRNNGTLVVQSLHGVFKVKDTTTLQQHLVDGRDMIIIRMPKDFPPFPQKLKFREPQREERICLVTTNFQTKSMSSMVSDTSCTFPSGDGIFWKHWIQTKDGQCGSPLVSTRDGFIVGQHSASNFTNTNNYFTSVPKNFMELLTNQEAQQWVSGWRLNADSVLWGGHKVFMVKPEEPFQPVKEATQL [I167Q]	0.0639	0.0492	0.0563		0.0669		
MGESLFKGPRDYNPISSSICHLTNESDGHTTSLYGIGFGPFIITNKHLFRRNNGTLVVQSLHGVFKVKDTTTLQQHLVDGRDMIIIRMPKDFPPFPQKLKFREPQREERICLVTTNFQTKSMSSMVSDTSCTFPSGDGIFWKHWIQTKDGQCGSPLVSTRDGFIVGIHLASNFTNTNNYFTSVPKNFMELLTNQEAQQWVSGWRLNADSVLWGGHKVFMVKPEEPFQPVKEATQL [S169L]		0.0614	0.0679				
MGESLFKGPRDYNPISSSICHLTNESDGHTTSLYGIGFGPFIITNKHLFRRNNGTLVVQSLHGVFKVKDTTTLQQHLVDGRDMIIIRMPKDFPPFPQKLKFREPQREERICLVTTNFQTKSMSSMVSDTSCTFPSGDGIFWKHWIQTKDGQCGSPLVSTRDGFIVGIHVASNFTNTNNYFTSVPKNFMELLTNQEAQQWVSGWRLNADSVLWGGHKVFMVKPEEPFQPVKEATQL [S169V]	0.061	0.0558	0.0686		0.0556		
